The source gives no read counts; variants with many changes may rest on few reads.
B1: CPEB3 Ribozyme (parent)
chain: UAACAGGGGGCCACAGCAGAAGCGUUCACGUCGCAGCCCCUGUCAGAUUCUGGUGAAUCUGCGAAUUCUGCUGUAUAUCUC

Variants of: B1
Assay: self-cleavage, relative activity (ratio to wild type); higher = more cleavage; in vitro, sequencing
Summary of the method: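 Relative activity compares each variant's cleaved/total read fraction with that of the unmutated ribozyme. To get these fractions, barcoded CPEB3 ribozyme libraries from rounds of error-prone PCR were transcribed with T7 RNA polymerase for 5 hours at 37°C and then given 15 min of DNase I treatment before EDTA was added. The RNAs were reverse transcribed with template switching and sequenced on Illumina, and DNA sequencing linked barcodes to variants. A minimum of 5 reads applied, and three batches were averaged.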
In the case of UAACAGGGGGCCACAGCAGAAGCGUUCACGUCGCGGCCCCUGUCAGAUUCUGGUGAGUCUGCGAAUUCUGCUGUAUACCUC [A35G A57G U78C], the self-cleavage is reported as 1.3. UAACAGGGGGCCACAGCAGAAGCGUUCACGUCGCGGCCCCUGUCGGAUUCUGGUGAAUUUGCGAAUUCUGCUGUAUACCUC [A35G A45G C59U U78C] showed a self-cleavage of 1.27. For UAACAGGGGGCCACAGCAGAAGCGUUCACGUCGCCGCCCCUGUCAGAUUCUGGUGAAUCUGCGAGUUCUGCUGUGCAUCUC [A35C A65G A75G U76C], the self-cleavage was 0.19. For UAACAGGGGGCCACAGCAGAAGCGUUCACGUCGCGGCCCCUGUCAGAUUCUGGUGUAUCUGCGAAUUCUGCCGUAUGUCUC [A35G A56U U72C A77G], the self-cleavage was 1.28. For UAACAGGGGGCCACAGCAGAAGCGUUCACGUCGCCGCCCCUGUCAGAUUCUGGUGAAUCUGCGAAUUCUGCCGUAUACCUC [A35C U72C U78C], the self-cleavage was 1.17. Work on UAACAGGGGGCCACAGCAGAAGCGUUCACGUCGCCGCCCCCGUCAGAUUCUGGUGAAUCUGCGAAUUCUGCUGUAUAACUC [A35C U41C U78A] yielded a self-cleavage of 1.1. In the case of UAACAGGGGGCCACAGCAGAAGCGUUCACGUCGCGGCCCCUGUCAGGUUCUGGUGGAUCUGCGAAUUCUGCUGUAUAUCUC [A35G A47G A56G], the self-cleavage is reported as 1.29. With UAACAGGGGGCCACAGCAGAAGCGUUCACGUCGCGGCCCCUGUCAGAUUCUGGUGAGUCUGCGGAUUCUGCUGUAUAUCUC [A35G A57G A64G] the self-cleavage was 1.27. For UAACAGGGGGCCACAGCAGAAGCGUUCACGUCGCGGCCCCUGUCAGAUUCUGGUGAGUCUGAGAAUUCUGCCGUAUAUCUC [A35G A57G C62A U72C], the self-cleavage was 0.39. For UAACAGGGGGCCACAGCAGAAGCGUUCACGUCGCGGCCCCUGUCAGAUUCUGGUGUAGCUGCGAAUUCUGCUGUAUAUCUC [A35G A56U U58G], the self-cleavage was 0.64. For UAACAGGGGGCCACAGCAGAAGCGUUCACGUCGCGGCCCCUGUCGGAAUCUGGUGAAUCUGCGAAUUCUGCUCUACAUCCC [A35G A45G U48A G73C U76C U80C], the self-cleavage was 1.28. In the case of UAACAGGGGGCCACAGCAGAAGCGUUCACGUCGCGGCCCCUGUCAGAUUCUGGUGAAUCUGCGGACUCUGCUGUAUAUCUC [A35G A64G U66C], the self-cleavage is reported as 1.01. In the case of UAACAGGGGGCCACAGCAGAAGCGUUCACGUCGCGGCCCCUGUCUGAUUCUGGUGAAUCAGCGAAUUCUGCAGUAUAUCUC [A35G A45U U60A U72A], the self-cleavage is reported as 1.2. UAACAGGGGGCCACAGCAGAAGCGUUCACGUCGCGGCCCCUGUCAGAUUCUGGUGAAUCUGCGGCUUCUGCUGUACAUCUC [A35G A64G A65C U76C] gave a self-cleavage of 0.24. UAACAGGGGGCCACAGCAGAAGCGUUCACGUCGCGGCCCCUGUCGGAUUCUGGUGAACCUGCGAGUUCUGCUGUAAAUCUC [A35G A45G U58C A65G U76A] gave a self-cleavage of 0.4. Variant UAACAGGGGGCCACAGCAGAAGCGUUCACGUCGCGGCCCCUGUCAGGUUCUGGUGAAUCCGCGAAUCCUGCUGUAUAUCUC [A35G A47G U60C U67C] has a self-cleavage of 0.63. Work on UAACAGGGGGCCACAGCAGAAGCGUUCACGUCGCCGCCCCUGUCAGAUUCUGGCGAAUCUGCGACUUCUGCUGUAUAUCUC [A35C U54C A65C] yielded a self-cleavage of 0.18. In the case of UAACAGGGGGCCACAGCAGAAGCGUUCACGUCGCCGCCCCUGUAAGAUUCUGGUGAACCUGCGAAUCCUGCUGUAUAUCUC [A35C C44A U58C U67C], the self-cleavage is reported as 0.08. UAACAGGGGGCCACAGCAGAAGCGUUCACGUCGCGGCCCCUGUCUGAUUCAGGUGAAUCUGCGAAUUCUGCUGUAUAUCUC [A35G A45U U51A] gave a self-cleavage of 1.27. Work on UAACAGGGGGCCACAGCAGAAGCGUUCACGUCGCCGCCCCUGUCAGAUUCUGGUGAAUCUGCGAACUCUGCCGUAUAUCCC [A35C U66C U72C U80C] yielded a self-cleavage of 0.35. Work on UAACAGGGGGCCACAGCAGAAGCGUUCACGUCGCGGCCCCUGUCUGAUUCUGGUGAAUCUGCGAGUUCAGCUGUAUAUCUC [A35G A45U A65G U69A] yielded a self-cleavage of 0.37. For UAACAGGGGGCCACAGCAGAAGCGUUCACGUCGCGGCCCCUGUCAGCUUCUGGUGAGUCAGCGAAUCCUGCUGUAUAUCUC [A35G A47C A57G U60A U67C], the self-cleavage was 0.14. In the case of UAACAGGGGGCCACAGCAGAAGCGUUCACGUCGCGGCCCCUGUCGGAUUCUGGUGAAUCUGCGUAUUCUGAGGUAUAUCUC [A35G A45G A64U C71A U72G], the self-cleavage is reported as 0.56. UAACAGGGGGCCACAGCAGAAGCGUUCACGUCGCGGCCCCUGUCGGAUUCUGGUGUAUCUGCGAAUUCUGCUGUAUAUCUC [A35G A45G A56U] showed a self-cleavage of 1.07. Work on UAACAGGGGGCCACAGCAGAAGCGUUCACGUCGCGGCCCCUGUCGGAUUCUGGUGGAUCUGCGAAUUCUGCUGUAUAUCUC [A35G A45G A56G] yielded a self-cleavage of 1.25. UAACAGGGGGCCACAGCAGAAGCGUUCACGUCGCCGCCCCUGUCAGAUUCCGGUGAAACUGCGUAUUCCGCAGUAUAUCUC [A35C U51C U58A A64U U69C U72A] showed a self-cleavage of 0.2. For UAACAGGGGGCCACAGCAGAAGCGUUCACGUCGCGGCCCCUGUCUGAUUCUGGUGAAUCUGCGAACUCUGCUGUAUAUCUC [A35G A45U U66C], the self-cleavage was 0.66. Variant UAACAGGGGGCCACAGCAGAAGCGUUCACGUCGCGGCCCCUGUCAGGUUCUGGUGAAUCCGCGAAUUCUGCUGUAUGUCUC [A35G A47G U60C A77G] has a self-cleavage of 0.95. UAACAGGGGGCCACAGCAGAAGCGUUCACGUCGCCGCCCCCGUCAGAUUCAGGUGAAUCUGCGUAUUCUGCUGUAUAUCUC [A35C U41C U51A A64U] showed a self-cleavage of 0.17. Variant UAACAGGGGGCCACAGCAGAAGCGUUCACGUCGCCGCCCCUGUCAGAUUCCGGUGAAUCUGCGAAUUCUGCCGUAUAUCUC [A35C U51C U72C] has a self-cleavage of 1.09. Variant UAACAGGGGGCCACAGCAGAAGCGUUCACGUCGCGGCCCCUGUCAGGUUCUGGUGCAUCUGCGAACUCUGCUGUAUAUCUC [A35G A47G A56C U66C] has a self-cleavage of 0.34. UAACAGGGGGCCACAGCAGAAGCGUUCACGUCGCGGCCCCUGUCAGUUUCUGGUGAAUCUGCGAAUUCUGCUGUACAUCUC [A35G A47U U76C] showed a self-cleavage of 1.23. Variant UAACAGGGGGCCACAGCAGAAGCGUUCACGUCGCCGCCCCUGUCAGAUUCUGGUGAAUCUGCGAAUCCUGCUGUUUAUCUC [A35C U67C A75U] has a self-cleavage of 0.13. For UAACAGGGGGCCACAGCAGAAGCGUUCACGUCGCGGCCCCUGUCAGGUUCUGGUGAAUCUGCGAAUUCCGCUGUAUAUCUC [A35G A47G U69C], the self-cleavage was 1.23.

From the RNAGym collection of RNA variant scans (doi:10.1093/nar/gkz1192)
